Measurements published in the supplement of paper PMC11125491.
± gives the standard deviation of the averaged measurements. Growth of baker's yeast expressing single-residue variants of Pneumocystis jirovecii dihydrofolate reductase in 8.8 or 44 µM methotrexate (about 75% and 90% inhibition of the wild type). Selection coefficient per generation; 0 = like wild type, above 0 = less sensitive, below 0 = more sensitive or loss of function. No active / inactive call per row; the paper calls resistant above 0.220 (8.8 µM) or 0.243 (44 µM) together with a significance test. At 44 µM about 15% of codons end with one read or none, so the lowest values are floors (replicate rank correlation 0.74; 0.94 at 8.8 µM).

B1: UniProt A0EPZ9; numbered along this chain (parent)
chain: MDWQKSLTLIVALTLSRGIGLKNDLPWKLKSDMMFFSRVTSGLLVTRSTGQMNVVLMGRKTWESLPAHSRPLKNRINVVISRQEVLDLGGGAYHARSLDDALALLSQIYDSTSKIQLNRVFVIGGGELCKAAMEHSRLNRIIATVIHNEVDCDVFFPIDFRSSQSCLPWRKQDHSVLEAWVGSKVPQGKINENGFIYEFEMWIRDI

Variants of: B1
Test: selection coefficient against synonymous wild-type codons (log2 per generation); higher = faster growth than wild type
Settings: with Saccharomyces cerevisiae carrying the variant on a plasmid
Method: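 Pooled growth of yeast carrying single-residue variants of P. jirovecii dihydrofolate reductase (own DFR1 gene intact), two passages at 30 °C, three cultures, sequenced before and after. Codons with under 15 starting reads are left out; codons of one change are averaged.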

| Variant | selection coefficient against synonymous wild-type codons (log2) (methotrexate 8.8 µM) | selection coefficient against synonymous wild-type codons (log2) (methotrexate 44 µM) |
| --- | --- | --- |
| MDWQKSLTLIVALTLSRGIGLKNDLPWKLKSDMMFFSRVTSGLLVTRSTGQMNVVLMGRKTWESLPAHSRPLKNRINVVISRQEVLDLGGGAYHARSLDDALALLSQIYDSTSKIQLNRVFVIGGGELCKAAMEHSRLNRIIATVIHNEVDCDVFFPIDFRSSQSCLPWRKQDHSVLEAWVGSKVPQGKINDNGFIYEFEMWIRDI [E192D] | -0.00218 ± 0.021 | -0.021 ± 0.081 |
| MDWQKSLTLIVALTLSRGIGLKNDLPWKLKSDMMFFSRVTSGLLVTRSTGQMNVVLMGRKTWESLPAHSRPLKNRINVVISRQEVLDLGGGAYHARSLDDALALLSQIYDSTSKIQLNRVFVIGGGELCKAAMEHSRLNRIIATVIHNEVDCDVFFPIDFRSSQSCLPWRKQDHSVLEAWVGSKVPQGKINGNGFIYEFEMWIRDI [E192G] | 0.0309 ± 0.053 | -0.0505 ± 0.058 |
| MDWQKSLTLIVALTLSRGIGLKNDLPWKLKSDMMFFSRVTSGLLVTRSTGQMNVVLMGRKTWESLPAHSRPLKNRINVVISRQEVLDLGGGAYHARSLDDALALLSQIYDSTSKIQLNRVFVIGGGELCKAAMEHSRLNRIIATVIHNEVDCDVFFPIDFRSSQSCLPWRKQDHSVLEAWVGSKVPQGKINFNGFIYEFEMWIRDI [E192F] | -0.0478 ± 0.045 | -0.139 ± 0.17 |
| MDWQKSLTLIVALTLSRGIGLKNDLPWKLKSDMMFFSRVTSGLLVTRSTGQMNVVLMGRKTWESLPAHSRPLKNRINVVISRQEVLDLGGGAYHARSLDDALALLSQIYDSTSKIQLNRVFVIGGGELCKAAMEHSRLNRIIATVIHNEVDCDVFFPIDFRSSQSCLPWRKQDHSVLEAWVGSKVPQGKINLNGFIYEFEMWIRDI [E192L] | -0.0621 ± 0.083 | -0.0967 ± 0.062 |
| MDWQKSLTLIVALTLSRGIGLKNDLPWKLKSDMMFFSRVTSGLLVTRSTGQMNVVLMGRKTWESLPAHSRPLKNRINVVISRQEVLDLGGGAYHARSLDDALALLSQIYDSTSKIQLNRVFVIGGGELCKAAMEHSRLNRIIATVIHNEVDCDVFFPIDFRSSQSCLPWRKQDHSVLEAWVGSKVPQGKINMNGFIYEFEMWIRDI [E192M] | -0.00406 ± 0.064 | -0.0539 ± 0.14 |
| MDWQKSLTLIVALTLSRGIGLKNDLPWKLKSDMMFFSRVTSGLLVTRSTGQMNVVLMGRKTWESLPAHSRPLKNRINVVISRQEVLDLGGGAYHARSLDDALALLSQIYDSTSKIQLNRVFVIGGGELCKAAMEHSRLNRIIATVIHNEVDCDVFFPIDFRSSQSCLPWRKQDHSVLEAWVGSKVPQGKINNNGFIYEFEMWIRDI [E192N] | 0.162 ± 0.021 | 0.115 ± 0.071 |
| MDWQKSLTLIVALTLSRGIGLKNDLPWKLKSDMMFFSRVTSGLLVTRSTGQMNVVLMGRKTWESLPAHSRPLKNRINVVISRQEVLDLGGGAYHARSLDDALALLSQIYDSTSKIQLNRVFVIGGGELCKAAMEHSRLNRIIATVIHNEVDCDVFFPIDFRSSQSCLPWRKQDHSVLEAWVGSKVPQGKINKNGFIYEFEMWIRDI [E192K] | 0.173 ± 0.07 | 0.201 ± 0.025 |
| MDWQKSLTLIVALTLSRGIGLKNDLPWKLKSDMMFFSRVTSGLLVTRSTGQMNVVLMGRKTWESLPAHSRPLKNRINVVISRQEVLDLGGGAYHARSLDDALALLSQIYDSTSKIQLNRVFVIGGGELCKAAMEHSRLNRIIATVIHNEVDCDVFFPIDFRSSQSCLPWRKQDHSVLEAWVGSKVPQGKINHNGFIYEFEMWIRDI [E192H] | 0.124 ± 0.05 | 0.0522 ± 0.19 |
